Where “and” joins values, the source holds several entries; their conditions need not be identical. Identical values can stand only once. The shares of active, inactive and inconclusive entries below differ from those in the screen. For some assays here: Potencies of inconclusive entries are doubtful fits and often do not repeat. Calls of active or inactive are those of the source. Unless noted, calls follow the shape of the dose curve; as a rule, active = well fitted curve in the direction sought with a large enough effect; inconclusive = small, poorly fitted or top-dose-only effect, or another doubt; inactive = no such curve, though single readings can be large; an effect the other way counts as inactive or inconclusive.
Key:
[1] = Primary qHTS for inhibitors of nuclear receptor binding SET domain protein 2 (NSD2) in an isogenic RCH-ACV NSD2 p.E1099K mutant (9B) (AID 1645876); also: nearly all actives have a fitted effect of over 70% in size
[2] = Primary qHTS for inhibitors of nuclear receptor binding SET domain protein 2 (NSD2) in an RCH-ACV wild type WT cells (2C) (AID 1645877); settings: activity change, negative = cell killing: at 44.9 µM (top of the series) unless noted; also: nearly all actives have a fitted effect of over 70% in size
HEK293 = experiment: Cytotoxic Profiling of Annotated Libraries Using Quantitative High-Throughput Screening (AID 1296008); settings: Five cell lines viability, CellTiter-Glo ATP luminescence, 48-72 h; max response: active compounds read low; also: nearly all actives have a fitted effect of over 60% in size
Procedure, shortened: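 Compounds were pin-transferred onto cells and incubated 48 or 72 hr at 37 degree Celsius, 95% humidity. CellTiter-Glo was added, plates sat 10 min at room temperature, then ATP-coupled luminescence was imaged as the viability read-out.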

OV90 = experiment: Primary qHTS to identify gynecologic anti-cancer compounds using libraries of approved drugs and bioactive compounds (AID 1345084); settings: Gynecologic cancer cell panel viability, ATPlite luminescence, 48 h; series mostly up to 57.5 µM; also: nearly all actives have a fitted effect of over 55% in size; as to activity change, negative = cytotoxicity: % is scaled to controls: 0 for no effect and ±100 for the full control effect
Procedure, shortened: (§1)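 Cells, 1,000 per well, plated 16 h, then exposed 48 h at 37 C to compounds. Viability by ATPlite luminescence after 15 min at room temperature.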

SKOV3 = experiment: as above; settings: Gynecologic cancer cell panel viability, ATPlite luminescence, 48 h; series mostly up to 57.5 µM
Procedure, shortened: as §1

[3] = Drug repurposing screens with cells derived from glioblastoma tumor samples (AID 1345199); settings: GBM patient neurospheres viability, ATP luminescence, 48 h; Potency: tumour line A unless noted; activity, negative = cell killing: at 46 µM (top of the series), tumour line A unless noted; also: nearly all actives have a fitted effect of over 40% in size
Procedure, shortened: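 Four patient lines of CD133+ GBM neurospheres were screened at several concentrations; hits were retested in those lines plus three slower-growing GBM lines, using 48-hour treatment and ATP-based viability.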

MKL-2 = experiment: qHTS assay to identify novel small-molecules to repurpose for Merkel cell carcinoma treatment (AID 1296009); settings: MCC and control cell lines, CellTiter-Glo viability, 72 h; activity change, negative = cytotoxicity: at 46 µM (top of the series); also: nearly all actives have a fitted effect of over 60% in size; as to activity change, negative = cytotoxicity: % is scaled to controls: 0 for no effect and ±100 for the full control effect
Procedure, shortened: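 qHTS format: cells treated with library compounds in DMSO across 8 (NPC) or 11 (MIPE) concentrations. Readout after 72 hr at 37 degree celsius was CellTiter-Glo luminescence.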

[4] = Primary qHTS for small molecule stabilizers of the endoplasmic reticulum resident proteome: Secreted ER Calcium Modulated Protein (SERCaMP) assay (AID 1508630); settings: SH-SY5Y GLuc-SERCaMP (Gaussia luciferase released on ER calcium loss) secretion, thapsigargin, luminescence; activity change, negative = inhibition: at 38.4 µM (top of the series) unless noted
Procedure, shortened: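 GLuc-SERCaMP-expressing SH-SY5Y cells, pretreated 16 h with compound, are challenged with thapsigargin to empty ER calcium stores; after 4 h, coelenterazine is added directly to the medium and luminescence is imaged.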

[5] = target: Cytochrome P450 2D6 (Homo sapiens) (UniProt P10635); experiment: Cytochrome P450 family 2 subfamily D member 6 (CYP2D6) small molecule antagonists: luciferase biochemical (cell-free) qHTS assay (AID 1645840; active = well fitted curve in the direction sought with a large enough effect in the repeat runs; inconclusive = weak or mixed curves; inactive = no such curve, though single readings can be large; an effect the other way counts as inactive or inconclusive; also: nearly all actives have a fitted effect of over 55% in size)
Procedure, shortened: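 P450-Glo luminescent screen: recombinant CYP2D6 enzyme–proluciferin substrate mix preincubated with compound 10 min at room temperature, then NADPH regeneration added for 1 h at room temperature. Detection reagent added for 20 min; luciferin light read as relative luminescence units.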

CASKI = experiment: Primary qHTS to identify gynecologic anti-cancer compounds using libraries of approved drugs and bioactive compounds (AID 1345084); settings: Gynecologic cancer cell panel viability, ATPlite luminescence, 48 h; series mostly up to 57.5 µM; also: nearly all actives have a fitted effect of over 55% in size; as to activity change, negative = cytotoxicity: % is scaled to controls: 0 for no effect and ±100 for the full control effect
Procedure, shortened: as §1

[6] = P-glycoprotein substrates identified in KB-8-5-11 adenocarcinoma cell line, qHTS therapeutic library screen (AID 1346987); also: nearly all actives have a fitted effect of over 65% in size
Procedure, shortened: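 KB-8-5-11, a colchicine-selected P-gp-overexpressing KB-3-1 subline, was grown without colchicine for the assay. Cells were seeded at 500 cells/well, dosed in concentration-response and incubated 72 h at 37 degree C, 5% CO2. Viability was read by CellTiter-Glo luminescence.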

Hek293T = experiment: Primary qHTS to identify gynecologic anti-cancer compounds using libraries of approved drugs and bioactive compounds (AID 1345084); settings: Gynecologic cancer cell panel viability, ATPlite luminescence, 48 h, control line for the selectivity index; activity change, negative = cytotoxicity: at 57.5 µM (top of the series) unless noted; also: nearly all actives have a fitted effect of over 55% in size; as to activity change, negative = cytotoxicity: % is scaled to controls: 0 for no effect and ±100 for the full control effect
Procedure, shortened: as §1

PA-1 = experiment: as above; settings: Gynecologic cancer cell panel viability, ATPlite luminescence, 48 h; series mostly up to 57.5 µM
Procedure, shortened: as §1

HeLa = experiment: as above; settings: Gynecologic cancer cell panel viability, ATPlite luminescence, 48 h; activity change, negative = cytotoxicity: at 57.5 µM (top of the series)
Procedure, shortened: as §1

CAOV3 = experiment: as above; settings: Gynecologic cancer cell panel viability, ATPlite luminescence, 48 h; activity change, negative = cytotoxicity: at 57.5 µM (top of the series)
Procedure, shortened: as §1

Tov112D = experiment: as above; settings: Gynecologic cancer cell panel viability, ATPlite luminescence, 48 h; series mostly up to 57.5 µM
Procedure, shortened: as §1

Tov-21-G = experiment: as above; settings: Gynecologic cancer cell panel viability, ATPlite luminescence, 48 h; activity change, negative = cytotoxicity: at 57.5 µM (top of the series) unless noted
Procedure, shortened: as §1
Potency is read from the fitted curve at half-maximal effect; tags tell the direction and shape of the fitted curve.

UniProt P10635, sequence (P10635 whole entry, looked up): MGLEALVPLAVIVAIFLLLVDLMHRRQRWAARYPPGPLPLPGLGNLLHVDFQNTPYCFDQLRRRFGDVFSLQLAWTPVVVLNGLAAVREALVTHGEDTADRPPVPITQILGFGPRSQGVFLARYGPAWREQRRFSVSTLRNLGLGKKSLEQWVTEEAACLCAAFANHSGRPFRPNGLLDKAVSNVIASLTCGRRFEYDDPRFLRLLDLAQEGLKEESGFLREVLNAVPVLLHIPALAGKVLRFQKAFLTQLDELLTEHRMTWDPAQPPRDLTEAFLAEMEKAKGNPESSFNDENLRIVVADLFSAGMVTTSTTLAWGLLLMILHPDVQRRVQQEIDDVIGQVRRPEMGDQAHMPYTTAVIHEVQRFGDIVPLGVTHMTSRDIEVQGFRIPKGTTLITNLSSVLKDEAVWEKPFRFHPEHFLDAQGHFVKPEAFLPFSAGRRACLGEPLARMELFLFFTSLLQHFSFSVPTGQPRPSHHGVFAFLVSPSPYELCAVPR

C[N+]1(CC2COC(c3ccccc3)(c3ccccc3)O2)CCCCC1 (stereo unspecified)
inconclusive: Potency [1] 11.2 µM [inhibitor, partial curve] | Potency (OV90) 11.2 µM [cytotoxic, single point] | Potency (SKOV3) 11.2 µM [cytotoxic, single point] | Potency [3] 22.4 µM [inhibitor, single point] | Potency (MKL-2) 9.2 µM [inhibitor, partial curve]
active: Potency [2] 2.59 µM | Potency (HEK293) 10 µM

CC(C)NCCCC1(C(N)=O)c2ccccc2-c2ccccc21
inconclusive: Potency [4] 31.6 µM [inhibitor, partial curve, poor fit] | Potency (HEK293) 23.7 µM [inhibitor, single point]
inactive: Potency [1] | Potency (CASKI) | Potency (MKL-2)
active: Potency [5] 3.89 µM

CC(C)(C)CC(=O)OCC(=O)[C@@]1(O)CC[C@H]2[C@@H]3CCC4=CC(=O)C=C[C@]4(C)[C@H]3[C@@H](O)C[C@@]21C
active: Potency (HEK293) 15 µM
inconclusive: Potency [5] 24.5 µM [inhibitor, partial curve, poor fit] | Potency (MKL-2) 21.1 µM [inhibitor, single point]
inactive: Potency [4]

CCCCNc1ccc(C(=O)OCCOCCOCCOCCOCCOCCOCCOCCOCCOC)cc1
inactive: Potency [5]
inconclusive: Potency [6] 9.88 µM [inhibitor, single point] | Potency [4] 20 µM [inhibitor, single point] | Potency [1] 8.41 µM [inhibitor, partial curve] | Potency [2] 11.9 µM [inhibitor, partial curve] | Potency (HEK293) 33.5 µM [inhibitor, partial curve, poor fit] | Potency (Hek293T) 39.8 µM [cytotoxic, single point] | Potency (OV90) 39.8 µM [cytotoxic, single point] | Potency (PA-1) 28.2 µM [cytotoxic, partial curve] | Potency (SKOV3) 39.8 µM [cytotoxic, single point]

CN[C@@H]1[C@@H](O)[C@@H](O[C@@H]2[C@H](O)[C@H](O[C@H]3OC(CN)=CC[C@H]3N)[C@@H](N)C[C@H]2N)OCC1(C)O (stereo partly specified)
inactive: Potency [2] | max response (HEK293) 4.89%
inconclusive: Potency [4] 2.82 µM [inhibitor, full curve, poor fit]

CN(C)CC/C=C1\c2ccccc2COc2ccccc21
inconclusive: Potency [6] 29.1 µM [inhibitor, single point] | Potency [4] 12.6 µM [inhibitor, single point] and 5.62 µM [inhibitor, partial curve, poor fit] and 25.1 µM [inhibitor, single point] | Potency [1] 33.5 µM [inhibitor, single point] | Potency [2] 18.8 µM [inhibitor, partial curve] | Potency (HEK293) 23.7 µM [inhibitor, single point] | Potency (CASKI) 8.91 µM [cytotoxic, single point] | Potency (HeLa) 28.2 µM [cytotoxic, partial curve, poor fit] | Potency (OV90) 22.4 µM [cytotoxic, single point] | Potency (MKL-2) 21.1 µM [inhibitor, partial curve, poor fit]
active: Potency [3] 14.1 µM

CC(=O)Nc1ccc(/C=N/NC(N)=S)cc1
inactive: Potency [5] | max response (HEK293) 0.104% | Potency (CAOV3) | Potency (Tov112D) | Potency (MKL-2)
inconclusive: Potency (SKOV3) 39.8 µM [rising, single point] | Potency [3] 14.1 µM [inhibitor, partial curve, poor fit]

COc1ccccc1N1CCN(CCCCNC(=O)c2ccc(-c3ccc(C(C)=O)cc3)cc2)CC1
inconclusive: Potency [6] 16.4 µM [inhibitor, single point] | Potency [5] 1.74 µM [inhibitor, full curve] | Potency [2] 0.531 µM [inhibitor, full curve, poor fit] | Potency (HEK293) 5.31 µM [inhibitor, partial curve] | Potency (SKOV3) 8.91 µM [rising, single point]
inactive: Potency [4] | Potency (OV90)

O=C(C1CCCCC1)N1CC(=O)N2CCCc3ccccc3C2C1 (stereo unspecified)
inconclusive: Potency [4] 28.2 µM [inhibitor, single point] | Potency [1] 29.9 µM [inhibitor, single point] | Potency [2] 26.6 µM [inhibitor, single point]
inactive: outcome (HEK293) | Potency (CASKI) | Potency (Tov-21-G) | Potency (MKL-2)

NC(=O)N[C@@H](CCC(=O)O)C(=O)O
inactive: Potency [1] | max response (HEK293) -4.43% | Potency (CAOV3) | Potency [3] | Potency (MKL-2)
inconclusive: Potency [4] 10 µM [inhibitor, partial curve, poor fit] | activity change, negative = cytotoxicity (HeLa) -73.2% | Potency (PA-1) 0.708 µM | Potency (Tov-21-G) 89.1 µM | Potency (Tov112D) 0.708 µM

From PubChem BioAssay (NCATS)
